Test results as given in the supplement of paper PMC10670038.
Where a name gives a salt, the structure may show the parent alone. ± gives the standard deviation of the averaged measurements. In all, about 2,000 compounds were measured (“relative cell viability vs DMSO, compound alone”: median about 1.1, lowest 2% from about 0.29 on). The list shows a part of the results.

The compounds below were run on TE10 (assay: relative cell viability vs DMSO, compound alone (fraction); TE10 is an esophageal squamous carcinoma line; higher = less cytotoxic). Conditions: 2 µM; 48 h.
Procedure: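 TE10 ESCC cells (1,000/well, 384-well plates) were treated with Selleck bioactive library compounds at 2 uM alone for 48 h. Viability was read by CellTiter-Glo and expressed relative to DMSO wells. Two technical replicates (A, B).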
Compound `CNC(=O)c1ccccc1Nc1cc(Nc2ccc(N3CCOCC3)cc2OC)ncc1C(F)(F)F` has a relative cell viability of 1.02 ± 0.04.
`NCCCC[C@@H]1NC(=O)[C@@H](Cc2ccc(O)cc2)NC(=O)[C@H](CC(=O)O)NC(=O)CNC(=O)[C@H](CCCN=C(N)N)NC1=O` [Cyclo(RGDyK)] showed a relative cell viability of 1.04 ± 0.022.
`CN1C(CCl)Nc2cc(Cl)c(S(N)(=O)=O)cc2S1(=O)=O` (stereo not given) [Methyclothiazide] showed a relative cell viability of 1.16 ± 0.026.
Compound `OCc1ccccc1O[C@@H]1O[C@H](CO)[C@@H](O)[C@H](O)[C@H]1O` [Salicin] has a relative cell viability of 1.143 ± 0.00076.
Compound `C=C1CC[C@@H]2[C@](C)(CO)[C@H](O)CC[C@@]2(C)[C@@H]1C/C=C1/C(=O)OC[C@H]1O` [Andrographolide] has a relative cell viability of 0.99 ± 0.041.
Compound `CC(=O)NS(=O)(=O)c1ccc(N)cc1` [Sulfacetamide Sodium] has a relative cell viability of 0.956 ± 0.037.
Compound `Cc1cn([C@H]2C=C[C@@H](CO)O2)c(=O)[nH]c1=O` [Stavudine (d4T)] has a relative cell viability of 1.233 ± 0.0061.
Compound `CCN(CC)CC(=O)Nc1c(C)cccc1C` [Lidocaine] has a relative cell viability of 1.18 ± 0.0049.
For `CC(C=CC(=O)NO)=CC(C)C(=O)c1ccc(N(C)C)cc1` (stereo not given) [Trichostatin A (TSA)], the relative cell viability was 0.0876 ± 0.0041.
`CC(=O)OCC(=O)[C@@]12OC(C)(C)O[C@@H]1C[C@H]1[C@@H]3C[C@H](F)C4=CC(=O)C=C[C@]4(C)[C@@]3(F)[C@@H](O)C[C@@]12C` [Fluocinonide] showed a relative cell viability of 0.9937 ± 0.0069.
In the case of `c1ccc2c(CC3=NCCN3)cccc2c1` [Naphazoline HCl], the relative cell viability is reported as 1.13 ± 0.013.
For `CN(c1ccccc1CNc1nc(Nc2ccc3c(c2)CC(=O)N3)ncc1C(F)(F)F)S(C)(=O)=O`, the relative cell viability was 0.9039 ± 0.0075.
`Cc1cnc(-c2cc(N3CCN(C(=O)CCS(C)(=O)=O)CC3)ncc2Cl)c(C)c1` showed a relative cell viability of 1.14 ± 0.036.
For `CC(C)(CO)c1cc2cc(NC(=O)C3(c4ccc5c(c4)OC(F)(F)O5)CC3)c(F)cc2n1C[C@@H](O)CO`, the relative cell viability was 1.11 ± 0.019.
Compound `Cc1c(CN2CCN(C(=O)[C@H](C)O)CC2)sc2c(N3CCOCC3)nc(-c3cnc(N)nc3)nc12` has a relative cell viability of 0.317 ± 0.021.
`CN1CCc2c(c3ccccc3n2Cc2ccc(C(=O)NO)cc2)C1` [Tubastatin A] gave a relative cell viability of 1.14 ± 0.023.
Compound `CN1CCc2c(c3ccccc3n2Cc2ccc(C(=O)NO)cc2)C1` [Tubastatin A HCl] has a relative cell viability of 0.9558 ± 0.0063.
Compound `CN(C)C(=O)c1ccc(S(=O)(=O)c2ccc(NC(=O)C(C)(O)C(F)(F)F)c(Cl)c2)cc1` (stereo not given) has a relative cell viability of 1.19 ± 0.024.
Compound `C=CC(C)(C)c1cc(C=CC(=O)c2ccc(O)cc2)c(OC)cc1O` [Licochalcone A] has a relative cell viability of 1.08 ± 0.023.
Compound `CC[C@@H]1C(=O)OC[C@@H]1Cc1cncn1C` [Pilocarpine HCl] has a relative cell viability of 1.13 ± 0.025.
With `CNc1cc(-c2cccc(Cl)c2Cl)nc(N)n1` the relative cell viability was 0.935 ± 0.027.
`C[C@@H](O[C@H]1OCCN(Cc2nn(P(=O)(O)O)c(=O)[nH]2)[C@H]1c1ccc(F)cc1)c1cc(C(F)(F)F)cc(C(F)(F)F)c1` [Fosaprepitant dimeglumine salt] gave a relative cell viability of 1.06 ± 0.045.
For `CCC(C)(Oc1ccc(C2(c3ccc(OC(C)(CC)C(=O)O)cc3)CCCCC2)cc1)C(=O)O` (stereo not given) [Clinofibrate], the relative cell viability was 1.105 ± 0.01.
Compound `COc1cc2nccc(Oc3ccc(NC(=O)NC4CC4)c(Cl)c3)c2cc1C(N)=O` [Lenvatinib (E7080)] has a relative cell viability of 1.13 ± 0.027.
Work on `Cc1ncc(-c2ccnc(Nc3ccc(S(C)(=O)=O)cc3)n2)n1C(C)C` yielded a relative cell viability of 0.689 ± 0.052.
Compound `CS(=O)(=O)OCCCCOS(C)(=O)=O` [Busulfan] has a relative cell viability of 0.932 ± 0.0095.
In the case of `N#Cc1ccc(-c2csc(NN=C3CCCC3)n2)cc1` [Remodelin], the relative cell viability is reported as 1.121 ± 0.0093.
`O=C(/C=C/c1ccc(O)cc1)c1ccc(O)cc1O` [Isoliquiritigenin] was tested, and the relative cell viability was 0.965 ± 0.035.
In the case of `N#CCNC(=O)c1ccc(-c2ccnc(Nc3ccc(N4CCOCC4)cc3)n2)cc1`, the relative cell viability is reported as 1.14 ± 0.034.
In the case of `OCc1c[nH]c2ccccc12` [Indole-3-carbinol], the relative cell viability is reported as 1.14 ± 0.048.
For `COc1ccc(C2CC(=O)c3c(O)cc(OC4OC(COC5OC(C)C(O)C(O)C5O)C(O)C(O)C4O)cc3O2)cc1OC` (stereo not given) [Methyl-Hesperidin], the relative cell viability was 1.06 ± 0.057.
`CN(C)C(=O)[C@H](O)[C@H](Cc1ccccc1)NC(=O)c1cc2cc(Cl)ccc2[nH]1` was tested, and the relative cell viability was 1 ± 0.19.
In the case of `O=C(Oc1cc(S(=O)(=O)c2ccccc2)ccc1[N+](=O)[O-])c1ccc(Cl)cc1`, the relative cell viability is reported as 1.095 ± 0.0016.
`N[C@@H](Cc1cc(I)c(Oc2ccc(O)c(I)c2)c(I)c1)C(=O)O` [Liothyronine Sodium] gave a relative cell viability of 0.869 ± 0.12.
Work on `Cc1ccc(=O)n(-c2ccccc2)c1` [Pirfenidone] yielded a relative cell viability of 1.18 ± 0.027.
With `C[C@H](CCC(=O)O)[C@H]1CC[C@H]2[C@@H]3[C@@H](O)C[C@@H]4C[C@H](O)CC[C@]4(C)[C@H]3CC[C@]12C` [Ursodiol] the relative cell viability was 0.96 ± 0.08.
`O=C(CCCN1CCN(c2ccccn2)CC1)c1ccc(F)cc1` [Azaperone] was tested, and the relative cell viability was 1.1 ± 0.032.
Work on `O=C(Nc1ccncc1)c1cc([N+](=O)[O-])ccc1Cl` yielded a relative cell viability of 1.2 ± 0.041.
In the case of `COCCCN1CCC(NC(=O)c2cc(Cl)c(N)c3c2OCC3)CC1` [Prucalopride Succinat], the relative cell viability is reported as 1.01 ± 0.018.
Compound `COCCCN1CCC(NC(=O)c2cc(Cl)c(N)c3c2OCC3)CC1` [Prucalopride] has a relative cell viability of 1.07 ± 0.093.
In the case of `CNc1nc(Nc2cn(C(C)(C)C#N)nc2C)ncc1C(F)(F)F`, the relative cell viability is reported as 1.11 ± 0.026.
Compound `COC(=O)C1=C(C#N)NC(C)=C(C(=O)OC(C)C)C1c1cccc([N+](=O)[O-])c1` (stereo not given) [Nilvadipine] has a relative cell viability of 1.13 ± 0.024.
`Cc1ccc(NC(=O)c2cccc(C(C)(C)C#N)c2)cc1Nc1ccc2ncn(C)c(=O)c2c1` showed a relative cell viability of 0.886 ± 0.17.
For `OCCN(CCO)c1nc(N2CCCCC2)c2nc(N(CCO)CCO)nc(N3CCCCC3)c2n1` [Dipyridamole], the relative cell viability was 1.1412 ± 0.0007.
For `CC[C@@H](C)Nc1cc(C(=O)N[C@H]2C[C@H]3CC[C@@H](C2)N3c2ccc(C(=O)C3CC3)cn2)c(C)cc1C(N)=O`, the relative cell viability was 0.449 ± 0.023.
`C[C@]12CC[C@@H]3c4ccc(OC(=O)c5ccccc5)cc4CC[C@H]3[C@@H]1CC[C@@H]2O` [Estradiol Benzoate] gave a relative cell viability of 1.052 ± 0.0075.
`Cc1ccc(F)c(NC(=O)Nc2ccc(-c3cccc4[nH]nc(N)c34)cc2)c1` [Linifanib (ABT-869)] showed a relative cell viability of 0.983 ± 0.068.
For `CN1CCN(C(c2ccccc2)c2ccccc2)CC1` [Cyclizine 2HCl], the relative cell viability was 1.124 ± 0.0085.
With `CC(C)OC(=O)C1=CN(C(=O)c2ccc(F)c(F)c2)CC(C)(C)c2c1[nH]c1ccccc21` the relative cell viability was 1.12 ± 0.032.
In the case of `CC(C)(C)[N+]([O-])=Cc1ccc(S(=O)(=O)O)cc1S(=O)(=O)O`, the relative cell viability is reported as 0.884 ± 0.17.
In the case of `Cc1c(-c2cnccn2)ssc1=S` [Oltipraz], the relative cell viability is reported as 0.944 ± 0.13.
Compound `Cc1cccc(CC(=O)N2CCc3c2ccc(-c2cn(C)c4ncnc(N)c24)c3F)n1` has a relative cell viability of 1.01 ± 0.047.
Work on `COc1ccc(-n2c(SCCCN3C(=O)c4cccc5cccc(c45)C3=O)nnc2-c2ccncc2)cc1` yielded a relative cell viability of 1.09 ± 0.024.
`CC(C)OC(=O)OCOP(=O)(CO[C@H](C)Cn1cnc2c(N)ncnc21)OCOC(=O)OC(C)C` [Tenofovir Disoproxil Fumarate] was tested, and the relative cell viability was 1.27 ± 0.055.
For `COc1c/c(=C2\C=c3ccccc3=N2)[nH]/c1=C\c1[nH]c(C)cc1C` [Obatoclax Mesylate (GX15-070)], the relative cell viability was 0.4397 ± 0.0027.
With `Cc1cc(NS(=O)(=O)c2ccc(N)cc2)no1` [Sulfamethoxazole] the relative cell viability was 1 ± 0.11.
With `Nc1[nH]nc2nnc(-c3c(-c4ccccc4)nn4ccccc34)cc12` the relative cell viability was 1.08 ± 0.046.
Work on `COc1cc(N2CCC(N)CC2)ccc1Nc1ncc(Cl)c(-c2c[nH]c3ccccc23)n1` yielded a relative cell viability of 0.783 ± 0.016.
In the case of `CCOC(=O)n1ccn(C)c1=S` [Carbimazole], the relative cell viability is reported as 1.17 ± 0.025.
Compound `CC1(C)S[C@@H]2[C@H](NC(=O)C(C(=O)O)c3ccccc3)C(=O)N2[C@H]1C(=O)O` (stereo not given in full) [Carbenicillin disodium] has a relative cell viability of 1.0374 ± 3.5e-05.
`CC(C)(C)C(=O)C(Oc1ccc(Cl)cc1)n1ccnc1` (stereo not given) [Climbazole] was tested, and the relative cell viability was 1.08 ± 0.021.
Compound `CC(C)N(CCCNC(=O)Nc1ccc(C(C)(C)C)cc1)C[C@H]1O[C@@H](n2cc(Br)c3c(N)ncnc32)[C@H](O)[C@@H]1O` has a relative cell viability of 0.972 ± 0.28.
`COc1ccc2c(c1)c(C1=C(c3c[nH]c4ccccc34)C(=O)NC1=O)cn2CCCN(C)C` gave a relative cell viability of 1.07 ± 0.029.
In the case of `O=c1cc(-c2ccccc2)oc2cc(O)cc(O)c12` [Chrysin], the relative cell viability is reported as 1.073 ± 0.0048.
`C=C[C@@]1(C)CC(=O)[C@]2(O)[C@@]3(C)[C@@H](O)CCC(C)(C)[C@@H]3[C@H](O)[C@H](OC(C)=O)[C@@]2(C)O1` [Forskolin] was tested, and the relative cell viability was 1.11 ± 0.067.
`O=C(CCCCCN1C(=O)c2cccc3cccc(c23)C1=O)NO` [Scriptaid] showed a relative cell viability of 0.699 ± 0.099.
Work on `Cc1cc(OCCCS(C)(=O)=O)cc(C)c1-c1cccc(COc2ccc3c(c2)OC[C@H]3CC(=O)O)c1` yielded a relative cell viability of 1.121 ± 0.0019.
Work on `CCN(CC)C(=S)SSC(=S)N(CC)CC` [Disulfiram] yielded a relative cell viability of 0.298 ± 0.03.
Work on `COc1cc2/c(=N/c3ccc(Br)cc3F)nc[nH]c2cc1OCC1CCN(C)CC1` [Vandetanib (ZD6474)] yielded a relative cell viability of 1.26 ± 0.092.
Work on `CC1(C)O[C@@H]2C[C@H]3[C@@H]4CCC5=CC(=O)C=C[C@]5(C)[C@H]4[C@@H](O)C[C@]3(C)[C@]2(C(=O)CO)O1` [Desonide] yielded a relative cell viability of 0.9976 ± 0.0055.
With `O=C(O)c1ccc2c(c1)nc(Nc1cccc(Cl)c1)c1ccncc12` [CX-4945 (Silmitasertib)] the relative cell viability was 0.843 ± 0.13.
In the case of `O=C1CC(=O)c2c(Cl)c(Cl)c(Cl)c(Cl)c21`, the relative cell viability is reported as 1.05 ± 0.019.
Work on `NCCCCCNCC12CC3CC(CC(C3)C1)C2` [IEM 1754 dihydrobroMide] yielded a relative cell viability of 1.16 ± 0.054.
`Nc1nonc1C(=Nc1ccc(F)c(Cl)c1)NO` showed a relative cell viability of 1.09 ± 0.054.
Work on `O=C(CCCCCCC(=O)Nc1ccccc1)NO` [Vorinostat (SAHA, MK0683)] yielded a relative cell viability of 0.568 ± 0.064.
For `O=C(/C=C/c1ccc(O)c(O)c1)c1ccc(O)cc1O` [Butein], the relative cell viability was 1.02 ± 0.042.
For `COc1ccc(S(=O)(=O)Nc2cccnc2Nc2ccc(O)cc2)cc1`, the relative cell viability was 0.809 ± 0.052.
`O=C(Nc1cc2cc[nH]c2cn1)c1ccccc1` gave a relative cell viability of 0.53 ± 0.024.
Compound `O=C1NCCc2[nH]c(-c3ccncc3)cc21` has a relative cell viability of 1.09 ± 0.14.
Work on `COC(=O)C1=C(C)NC(C)=C(C(=O)OC2CCCN(Cc3ccccc3)C2)C1c1cccc([N+](=O)[O-])c1` (stereo not given) [Benidipine HCl] yielded a relative cell viability of 1.06 ± 0.025.
